# Source: PubChem BioAssay AID1346428 (National Center for Advancing Translational Sciences (NCATS), 2018)
# Where “and” joins values, the source holds several entries; their conditions need not be identical. Equal values may be shown once. In all, about 48,000 compounds went through this assay and about 1,200 (2.5%) were called active. This list was built around the results that the source calls inconclusive (neither active nor inactive); the mix of calls is not that of the screen.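 How the source made its calls: active means activation of at least 60% and not above a set upper limit (about 1 call in 100 departs from these limits); inconclusive means activation of 40% to 60%, or above that upper limit; inactive means activation under 40%.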 Where a structure was tested more than once in an assay, its records may differ in their call.
# Molecular target: Probable G-protein coupled receptor 32 (Homo sapiens) (UniProt O75388)
# UniProt O75388, sequence (O75388 whole entry, looked up): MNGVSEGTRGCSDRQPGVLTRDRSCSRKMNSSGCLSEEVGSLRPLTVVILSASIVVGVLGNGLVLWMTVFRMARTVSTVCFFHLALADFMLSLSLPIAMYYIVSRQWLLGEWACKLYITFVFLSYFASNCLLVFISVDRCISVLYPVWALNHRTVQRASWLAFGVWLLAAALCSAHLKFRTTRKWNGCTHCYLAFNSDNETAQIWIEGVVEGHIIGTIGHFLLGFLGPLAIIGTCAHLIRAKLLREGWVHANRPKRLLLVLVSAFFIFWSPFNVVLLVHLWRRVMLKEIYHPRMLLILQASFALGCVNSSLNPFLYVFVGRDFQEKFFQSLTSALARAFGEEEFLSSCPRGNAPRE
# Test: qHTS for Agonists of Human Resolvin D1 Receptor DRV1; further: 0% is about no effect
# Settings: CHO-K1 GPR32 beta-arrestin PathHunter luminescence, 90 min; at 76.9 µM; stronger effect = higher value; zero percent set by DMSO-only wells
# Summary of the method: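 Step 1: seed CHO-K1 GPR32 beta-arrestin cells, 2,500/well, overnight at 37 °C. Step 2: add compounds, 90 min at 37 °C. Step 3: detection reagent, 1 h ambient, then luminescence.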
row,SMILES,activation
1,O=C1CCSc2ccc(S(=O)(=O)Nc3ccc(Cl)c(C(F)(F)F)c3)cc2N1,active: 70.9%
2,COc1ccc(Cc2nc3ccc(C(=O)NCc4ccc(OC)cc4OC)cc3o2)cc1,inconclusive: 350%
3,COc1ccc(CCNc2nccn(-c3ccc(C)c(C)c3)c2=O)cc1OC,inconclusive: 54.9%
4,Cc1c(OCC(F)(F)F)ccnc1CS(=O)c1nc2ccccc2[nH]1 (configuration not stated),active: 60.4% and inactive: -5.96%
5,CCN(C(=O)Cc1c(C(=O)O)c(C)cn1C)c1cccc(Cl)c1,inactive: -4.58%
6,O=C(NC1CC1)c1ccc(Cn2c(SCc3ccc(F)cc3)nc3cccnc32)cc1,active: 63.3%
7,COc1ccc(C(=O)NNc2ncnc3c2cnn3-c2ccc(C)cc2C)cc1,inconclusive: 58%
8,Cc1ccc2occ(CC(=O)Nc3ccc(Cl)c(C(F)(F)F)c3)c2c1,inconclusive: 51.3%
9,O=C(Cn1c(=O)ccc2cc(S(=O)(=O)N3CCCC3)ccc21)Nc1ccccc1,inconclusive: 59.8%
10,COc1ccc(-c2nc(CNC(=O)Nc3ccccc3)c(C)o2)c(OC)c1,active: 64.7%
11,Cc1c(Cl)cccc1NC(=O)C(=O)NCCc1csc2nc(-c3ccccc3F)nn12,inconclusive: 134%
12,Cc1ccc(-n2c(C)cc(/C=C(\C#N)C(=O)Nc3ccc(C)c(C)c3)c2C)cc1,inactive: 11.8%
13,Cc1ccccc1C(=O)N1CC/C(=N\OS(=O)(=O)O)c2ccc(Cl)cc21,inactive: -34.7%
14,CC(C)c1ccc(NC(=O)C2CCN(C(=O)c3ccc(F)cc3)CC2)cc1,inconclusive: 124%
15,COc1cccc(NC(=O)CN2C(=O)c3cccc4cccc2c34)c1,inconclusive: 55.7%
16,CCSc1nn(CC(=O)Nc2cccc(Cl)c2)c(N)c1S(=O)(=O)c1ccc(OC)cc1,inconclusive: 56.2%
17,COc1ccc(NC(=O)c2ccc(NC(=O)CCS(=O)(=O)c3cccs3)cc2)cc1,inconclusive: 261%
18,Cc1nc(-c2ccccc2)sc1CCNS(=O)(=O)c1ccccc1,inconclusive: 168%
19,O=C(Cn1c(SCC(=O)Nc2ccc(F)cc2)nc2ccccc21)NCc1ccc(F)cc1,inconclusive: 123%
20,CC(C)CC(=O)Nc1cccc(-c2nc3ccccc3[nH]2)c1,inconclusive: 135%
21,Cc1ccc(SCCNC(=O)CN(c2ccccc2)S(=O)(=O)N(C)C)cc1,inconclusive: 59.3%

row,SMILES,activation
1,Cc1cc(NC(=O)Cn2c(=O)oc3cc(S(=O)(=O)N4CCCC4)ccc32)ccc1Br,inconclusive: 137%
2,O=C(Nc1cccc(C(F)(F)F)c1)c1cccc(C(=O)Nc2cccc(C(F)(F)F)c2)c1,inconclusive: 55.4%
3,COc1ccc(NC(=O)c2ccc(NC(=O)CCS(=O)(=O)c3cccs3)cc2)cc1Cl,inconclusive: 165%
4,COc1cccc(C(=O)Nc2nnc(S(=O)(=O)N3CCCc4ccccc43)s2)c1,inconclusive: 125%
5,CCOC(=O)c1c(NC(=O)c2cc(-c3cccc(Cl)c3)on2)sc(C)c1C,inactive: -8.9%
6,O=C(Cc1ccc(Cl)cc1)NCCc1csc2nc(-c3ccccc3F)nn12,active: 121%
7,Cc1ccc(CNc2cc(C)nc3nc(-c4ccc(C)cc4)nn23)cc1,inconclusive: 58.6%
8,CCn1c(CNC(=O)C23CC4CC(CC(C4)C2)C3)nnc1SCC(=O)Nc1ccc(C)cc1,inconclusive: 58.6%
9,COc1cc2c(cc1OC)-c1cc(=Nc3c(C)cc(C)cc3C)n(C)c(=O)n1CC2,inconclusive: 55.5%
10,CCOC(=O)c1c(C)[nH]c(C)c1S(=O)(=O)N1CCC(C(=O)NCc2ccc(F)cc2)CC1,inconclusive: 253%
11,O=C(NC1CCCC1)c1ccc(CSc2nc3cccnc3n2Cc2cccc(F)c2)cc1,inactive: -11.4%
12,O=C(Nc1ccc(OCc2cc(=O)n3ccsc3n2)cc1)c1ccc(F)cc1,inactive: 9.98%
13,COCCn1c(-c2ccccc2)c(C)n2c3c(=O)n(C)c(=O)n(C)c3nc12,inactive: 2.26%
14,CCOc1ccc(NS(=O)(=O)c2ccc3[nH]cc(C(=O)NCc4ccco4)c(=O)c3c2)cc1,active: 67.3%
15,Cc1cccc(C)c1Nc1c(-c2ccsc2)nc2ccccn12,inconclusive: 58.7%
16,CCC(Cc1ccccc1)NC(=O)c1ccc2nc(N3CCC(C)CC3)sc2c1 (configuration not stated),inactive: 32.6%
17,CCOC(=O)c1ccc(NC(=O)c2cc3cc(C)ccc3n2C)cc1,active: 72.4%
18,Cc1ccc(-c2cc(N)n3nc(-c4ccc(C)cc4)cc3n2)cc1,inconclusive: 58.8%
19,CCCCN(CCCC)CC(O)Cn1cc(/C=C/C(=O)c2ccccc2)c2ccccc21 (configuration not stated),active: 88.2%
20,CCS(=O)(=O)N1CCc2cc(C(=O)NCCc3ccccc3)ccc21,inactive: -7.75%
21,CCC1CCCCN1CCCNC(=O)c1cc2c(Cl)nc3ccccc3c2s1 (configuration not stated),inconclusive: 57.6%
